Among all 200,000 compounds or so, about 10 (0.005%) were called active. The shares of active, inactive and inconclusive entries below differ from those in the screen. The call rests on the fitted dose curve; in most records, active means well fitted inhibition curve with a large enough effect; inconclusive means small, poorly fitted or top-dose-only effect, or effect the other way, or another doubt; inactive means no such curve, though single readings can be large or run the other way. Potencies of inconclusive entries are left out as doubtful fits.
target: Lysosomal alpha-glucosidase (Homo sapiens) (UniProt P10253); experiment: qHTS Assay for Inhibitors of Human alpha-Glucosidase as a Potential Chaperone Treatment of Pompe Disease; conditions: purified human GAA, 4-MU-alpha-glucoside fluorescence; activity change, negative = inhibition: at 76.9 µM (top of the series) unless noted;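 on activity change, negative = inhibition: plate controls were uninhibited enzyme wells for no effect and no-enzyme background for full effect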
Summary of the method: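 Human alpha-glucosidase, 4 nM, pre-mixed with test compounds before 400 uM 4-methylumbelliferyl substrate; 20 min room temperature at pH 5.0. Fluorescence read after pH 10 stop; AC50 values from Hill-equation fits.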
Potency means the concentration at half of the fitted maximal effect; tags describe the fitted curve by direction and shape.

Row | Compound | activity change, negative = inhibition | Potency
1 | Oc1ccc2ccccc2c1C1Nc2cccc3cccc(c23)N1 | inactive: -3.63% | –
2 | Cc1ccc(S(=O)(=O)CCN2CCN(c3ccccn3)CC2)cc1 | inconclusive: -16.8% [inhibitor] | –
3 | CCOc1ccccc1NC(=O)CN(C)S(=O)(=O)c1ccc(OC)c(C)c1 | – | inconclusive [inhibitor, single point]
4 | CC(=O)N(c1ccc(C(C)C)cc1)C1C=CS(=O)(=O)C1 (configuration not stated) | – | inconclusive [inhibitor, partial curve]
5 | CCCCC(CC)CNC(=O)Cn1c(=O)[nH]c2ccsc2c1=O (configuration not stated) | inconclusive: -19.7% [inhibitor] | –
6 | O=c1[nH]c(-c2ccccn2)nc2ccccc12 | – | inconclusive [inhibitor, single point]
7 | Cc1onc(-c2ccccc2Cl)c1C(=O)Oc1cccc2cccnc12 | – | inconclusive [inhibitor, single point]
8 | CCN(CC)CCNC(=O)c1c(C)n(-c2ccccc2)c2cc(Br)c(OC)cc12 | inconclusive: 8% [activator] | –
9 | CC(=O)c1c(C)oc2ccc(N(C(C)=O)S(=O)(=O)c3ccc(Cl)c([N+](=O)[O-])c3)cc12 | – | inconclusive [inhibitor, single point]
10 | C/C(=N/NC(=O)c1ccccn1)c1ccco1 | inactive: 1.09% | –
11 | O=C(COc1ccccc1)N1CCNC1=O | – | inconclusive [activator, single point]
12 | Cn1cc(/C=C2\SC(=O)NC2=S)c2ccccc21 | – | inconclusive [inhibitor, single point]
13 | Cc1sc2ncnc(OCC(=O)Nc3ccc4c(c3)OCCO4)c2c1C | – | inconclusive [inhibitor, single point]
14 | COc1ccc(C)cc1NC(=O)c1ccc(NC(=O)CC2SC(N3CCCC3)=NC2=O)cc1 (configuration not stated) | – | inconclusive [inhibitor, full curve, poor fit]
15 | COc1c(C)cc(C(=O)C2CCCN(C(=O)c3cccc(-n4cccn4)c3)C2)cc1C (configuration not stated) | – | inconclusive [inhibitor, single point]
16 | CC(NCc1ccc2c(c1)OCO2)C(=O)NC1CCCCC1 (configuration not stated) | inconclusive: 20.1% [activator] | –
17 | C=CCc1ccc(OCC(O)CN2CCN(Cc3ccccc3)CC2)c(OC)c1 (configuration not stated) | inactive: -3.75% | –
18 | CCOC(=O)N1CCC(Nc2c(NCCCN3CCN(CC)CC3)c(=O)c2=O)CC1 | – | inconclusive [inhibitor, single point]
19 | COc1ccccc1N(O)C1CC(=O)N(c2ccc(F)cc2)C1=O (configuration not stated) | inactive: 2.16% | –
20 | Cc1occc1C(=O)Nc1ccc(OCc2ccccc2)cc1 | inconclusive: 17.5% [activator] | –
21 | CCOC(=O)NN1C(=O)c2ccccc2NC1c1cccnc1 (configuration not stated) | – | inconclusive [activator, single point]
22 | COC(=O)c1cc(C(=O)c2ccc(C(C)(C)C)cc2)c[nH]1 | – | inconclusive [inhibitor, single point]
23 | Cc1cc(CNC(=O)CC2C(=O)NCCN2Cc2ccccc2C(F)(F)F)on1 (configuration not stated) | – | inconclusive [inhibitor, single point]

Row | Compound | activity change, negative = inhibition | Potency
24 | CCOc1ccc(OCCSc2nnnn2C2CCCCC2)cc1 | – | inconclusive [inhibitor, partial curve, poor fit]
25 | COc1ccc(CC(=O)N2N=C(C)CC2(O)C(F)(F)F)cc1OC (configuration not stated) | inconclusive: 13.9% [activator] | –
26 | CC1CCc2c(nc3ncnn3c2Nc2ccc(OC(F)(F)F)cc2)C1 (configuration not stated) | – | inconclusive [inhibitor, partial curve]
27 | Cc1cccn2c(CN3CCSCC3)c(C(=O)N3CCOCC3)nc12 | inactive: -4.5% | –
28 | Cc1cc(=O)oc2cc(NS(=O)(=O)c3ccccc3)ccc12 | – | inconclusive [activator, partial curve]
29 | COc1ccc(-c2n[nH]c(C(F)(F)F)c2-c2cc3ccccc3o2)c(O)c1 | – | inconclusive [activator, partial curve]
30 | COc1ccccc1NC(=S)NCCc1c[nH]c2ccccc12 | – | inconclusive [inhibitor, partial curve, poor fit]
31 | S=C(NCCc1ccccc1)NC1CCC(NC(=S)NCCc2ccccc2)CC1 (configuration not stated) | inconclusive: 14.4% [activator] | –
32 | CC1CC(C)(C)NC(=S)N1CCC(=O)N1CCc2ccccc2C1 (configuration not stated) | – | inconclusive [inhibitor, partial curve, poor fit]
33 | CN1CCN(c2ccccc2NC(=O)COc2ccc(Br)cc2)CC1 | – | inconclusive [inhibitor, partial curve, poor fit]
34 | COc1ccc(CCNC(=O)c2nc3ncccn3n2)cc1OC | inconclusive: -20.4% [inhibitor] | –
35 | CCSc1nnc(NC(=O)c2ccc(Br)s2)s1 | inactive: -4.83% | –
36 | Nc1nc2ccc(O)cc2s1 | inactive: -11.6% | –
37 | O=C(O)Cn1cnc2sc3c(c2c1=O)CCCC3 | inconclusive: 15.7% [activator] | –
38 | Clc1ccc(OCCN2CCN(c3ncnc4sccc34)CC2)cc1 | – | inconclusive [inhibitor, single point]
39 | C=CCOc1ccccc1/C=N/NC(=O)c1ccc(Cl)cc1Cl | – | inconclusive [inhibitor, partial curve, poor fit]
40 | O=c1[nH]cnc2scc(-c3ccc(F)cc3)c12 | inconclusive: -16.4% [inhibitor] | –
41 | CCN(C(=O)COC(=O)c1cc(-c2ccc3cc(OC)ccc3c2)nc2ccccc12)C1CCS(=O)(=O)C1 (configuration not stated) | inconclusive: 17.7% [activator] | –
42 | CCN(CC)C1=CC2=CC(=C(C#N)C#N)CCC2CC1 (configuration not stated) | inactive: 0.283% | –
43 | CC(CNC(=O)c1ccc2c(c1)OCO2)c1ccc([N+](=O)[O-])cc1 (configuration not stated) | – | inconclusive [activator, full curve, poor fit]
44 | COc1cccc(C2CC(c3ccccc3Cl)Nc3nc(N)nn32)c1 (configuration not stated) | – | inconclusive [inhibitor, partial curve]
45 | O=S(=O)(c1ccc2c(c1)N(Cc1ccc(Cl)cc1)C1CCCN21)N1CCOCC1 (configuration not stated) | – | inconclusive [inhibitor, single point]
46 | Cc1c(N=Cc2c(O)n(Cc3ccco3)c(=O)c3ccccc23)c(=O)n(-c2ccccc2)n1C | inconclusive: -16.3% [inhibitor] | –

Row | Compound | activity change, negative = inhibition | Potency
47 | CCOP(=O)(OCC)c1nc(/C=C/c2ccccc2)oc1NCc1ccc(OC)cc1 | – | inconclusive [activator, partial curve]
48 | Cc1ccc(Oc2ccc(NC(=O)c3ccco3)cc2)cc1 | – | inconclusive [inhibitor, single point]
49 | CCOc1ccc(C(Nc2ccc(C)cc2)P2(=O)OCC(C)(C)CO2)cc1 (configuration not stated) | – | inconclusive [inhibitor, partial curve, poor fit]
50 | COc1ccc(CC(=O)OCc2nnc(C3COc4ccccc4O3)o2)cc1OC (configuration not stated) | – | inconclusive [inhibitor, single point]
51 | Oc1ccc(N2CCN(C(c3ccncc3)c3nnnn3C3CCCC3)CC2)cc1 (configuration not stated) | inactive: -7.57% | –
52 | COc1ccccc1-c1cc(C(F)(F)F)c(C#N)c(=O)[nH]1 | – | inconclusive [activator, partial curve]
53 | COc1ccccc1NCC(=O)NNCC(=O)Nc1ccc(F)c(Cl)c1 | – | inconclusive [inhibitor, single point]
54 | CCOC(=O)/C=C/C(=O)Nc1ccc(S(=O)(=O)N2CCCCCC2)cc1 | inconclusive: -17.8% [inhibitor] | –
55 | COCCCNC(=O)C1CCN(C(=O)Nc2ccc(Cl)cc2)CC1 | – | inconclusive [inhibitor, single point]
56 | COc1cc(NC(=S)NC(C)=O)ccc1NC(=O)C(C)C | inactive: -0.951% | –
57 | Cc1ccc(CN2C(=O)CCC2C(=O)N2CCN(c3ccc(F)cc3)CC2)cc1 (configuration not stated) | – | inconclusive [inhibitor, partial curve]
58 | Cc1cccnc1Nc1nc(-c2ccc(O)c(O)c2)cs1 | – | inconclusive [inhibitor, full curve, poor fit]
59 | c1ccc(Cn2nnc3c(N4CCCC4)ncnc32)cc1 | – | inconclusive [inhibitor, single point]
60 | CSc1ccccc1NC(=O)COC(=O)Cc1cccs1 | inactive: -4.51% | –
61 | CCOc1ccc(N(CC(=O)NC(C(C)C)C(C)C)S(=O)(=O)c2ccc(OC)c(OC)c2)cc1 | – | inconclusive [inhibitor, single point]
62 | Cc1ccc(S(=O)(=O)/C(C#N)=C/c2c(N3CCN(C)CC3)nc3ccccn3c2=O)cc1 | – | inconclusive [inhibitor, single point]
63 | CC(=O)N1CCc2cc(N=NC3=C(O)CCCC3=O)ccc21 | – | inconclusive [inhibitor, single point]
64 | COc1ccc(N2C(=O)c3ccccc3NC2c2ccc(OC)c(CSc3ccccn3)c2)cc1 (configuration not stated) | – | inconclusive [activator, single point]
65 | Cc1ccc(-n2c(SCC(=O)Nc3cccc(S(=O)(=O)NC4=NCCCCC4)c3)nc3ccccc3c2=O)cc1C | – | inconclusive [inhibitor, single point]
66 | COc1ccc(NC(=O)c2cc(-c3ccco3)nc3ccccc23)cc1S(=O)(=O)N1CCOCC1 | – | inconclusive [inhibitor, partial curve, poor fit]
67 | O=C(NCc1ccccn1)C1CCN(S(=O)(=O)c2ccccc2)CC1 | – | inconclusive [inhibitor, partial curve]
